Source: PMC4336329 (PLoS ONE, 2015)
The campaign covered roughly 310,000 compounds. About 14,000 (4.5%) showed an effect of 50% or more. The effect is printed as a negative number. The list shows a part of the results.

What follows are molecules tested against human ether-à-go-go-related gene (hERG) potassium channel (human, UniProt Q12809) (assay: primary screen, population patch clamp on CHO cells stably expressing hERG).
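Also: peak tail current of the secondary pulse compared with the same well before compound.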

human ether-à-go-go-related gene (hERG) potassium channel, sequence (Q12809 whole entry, looked up): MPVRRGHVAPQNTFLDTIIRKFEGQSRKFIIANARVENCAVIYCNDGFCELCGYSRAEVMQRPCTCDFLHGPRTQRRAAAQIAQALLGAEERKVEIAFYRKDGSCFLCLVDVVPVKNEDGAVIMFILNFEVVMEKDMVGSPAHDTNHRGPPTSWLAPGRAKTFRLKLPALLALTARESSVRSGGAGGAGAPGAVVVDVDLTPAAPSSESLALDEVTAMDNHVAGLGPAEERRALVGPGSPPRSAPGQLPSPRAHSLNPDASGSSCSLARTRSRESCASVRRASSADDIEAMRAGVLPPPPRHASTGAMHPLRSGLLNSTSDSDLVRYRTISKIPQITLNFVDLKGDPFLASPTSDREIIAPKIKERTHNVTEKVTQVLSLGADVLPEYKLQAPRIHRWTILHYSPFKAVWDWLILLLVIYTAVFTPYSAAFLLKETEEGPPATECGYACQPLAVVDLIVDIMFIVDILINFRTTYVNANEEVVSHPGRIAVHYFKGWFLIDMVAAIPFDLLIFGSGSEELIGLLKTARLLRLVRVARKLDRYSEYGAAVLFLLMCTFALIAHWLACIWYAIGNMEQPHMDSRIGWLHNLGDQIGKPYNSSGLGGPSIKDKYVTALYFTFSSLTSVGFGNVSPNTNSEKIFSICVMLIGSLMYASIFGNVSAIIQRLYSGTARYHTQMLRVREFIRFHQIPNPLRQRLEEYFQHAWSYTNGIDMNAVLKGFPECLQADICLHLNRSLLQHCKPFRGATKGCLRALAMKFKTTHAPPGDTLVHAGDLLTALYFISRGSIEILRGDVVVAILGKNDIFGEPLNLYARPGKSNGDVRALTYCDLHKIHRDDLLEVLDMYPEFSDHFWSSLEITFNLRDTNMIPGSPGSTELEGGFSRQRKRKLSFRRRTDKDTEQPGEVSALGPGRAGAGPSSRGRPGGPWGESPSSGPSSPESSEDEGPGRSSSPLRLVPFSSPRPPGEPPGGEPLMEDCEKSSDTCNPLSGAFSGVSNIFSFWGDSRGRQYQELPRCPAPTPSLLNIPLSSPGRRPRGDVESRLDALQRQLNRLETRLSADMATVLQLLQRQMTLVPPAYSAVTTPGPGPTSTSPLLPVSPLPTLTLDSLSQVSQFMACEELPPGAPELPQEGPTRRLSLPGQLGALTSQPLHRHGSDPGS

SMILES	hERG current change (%, negative = inhibition) at 10uM [%]
Cc1oc(-c2ccccc2F)nc1CS(=O)(=O)CC(=O)NC1CCCC1	-3.47
Cc1cccc(C)c1OCC(=O)Nc1ccc(N2CCOCC2)cc1	-4.13
CCOc1ccc(N(CC(=O)N2CCCCCC2)S(=O)(=O)c2ccc(F)cc2)cc1	-38
Nc1c(N(CCC2=CCCCC2)C(=O)c2ccccc2F)c(=O)[nH]c(=O)n1Cc1ccccc1	15.5
c1ccc(C[C@H]2CNCCN2CCc2cccc3ccccc23)cc1	-35.6
O=C(NCCO)c1ccc(Cl)c(Cl)c1	-2.23
CCOC(=O)N1CCN(C(=O)c2nn(-c3ccc(C)cc3)c(=O)c3c2c2ccccc2n3C)CC1	14.6
CCOCCOC(=O)c1[nH]c2c(c1C)C(=O)CC(c1cc(OC)c(OC)c(OC)c1)C2 (stereo not drawn)	-0.921
CC(=O)c1cnn(-c2cc(Oc3cccc(C)c3)ncn2)c1C	18.9
COc1ccccc1NC(=O)Cc1nnc(SCC(=O)NC2CCCC2)n1C	7.65
CCCCn1c(O)c(C(C)=NCc2cccnc2)c(=O)[nH]c1=O	-23.5
CC(=O)Nc1ccc(/C(C)=N/Nc2nc(Nc3cccc4ccccc34)nc(N3CCOCC3)n2)cc1.CCO	5.89
Cc1ccnc(SCc2cn3c(C)cc(C)nc3n2)n1	-3.93
Cc1cc(NC(=O)CSCC(=O)Nc2nc3ccccc3[nH]2)no1	30.9
CC(C)(C)N1CC(C(=O)Nc2ccc(S(N)(=O)=O)cc2)CC1=O (stereo not drawn)	10.6
Cc1ccc(NC(=O)/C(Cl)=C/c2ccccc2)cc1C	-6.65
CCN(CC)CCCN(C(=O)c1ccco1)c1nc(-c2ccc(C)cc2)cs1.Cl	-84.1
CCCOc1cc(CN2CCCCC2)cc(C(C)=O)c1.Cl	-16.3
COCC(C)n1c(=O)sc2ccccc2c1=O (stereo not drawn)	3.14
COc1ccc(OC)c(C(=O)NC(CC(N)=O)c2ccc(N3CCN(c4ccccc4)CC3)c([N+](=O)[O-])c2)c1 (stereo not drawn)	9.86
O=C(Cc1ccc(S(=O)(=O)N2CCOCC2)s1)Nc1ccc(N2CCOCC2)cc1	40.5
COc1ccc(S(=O)(=O)NCC(c2ccc3c(c2)OCO3)N2CCN(c3ccccc3)CC2)cc1 (stereo not drawn)	0.826

SMILES	hERG current change (%, negative = inhibition) at 10uM [%]
CCOC(=O)COc1c(OC)cc(Cl)cc1C1Nc2ccccc2C(=O)N1c1ccccc1 (stereo not drawn)	-11
Cc1ccc(S(=O)(=O)N2CCCNCC2)cc1	8.85
CCCN(CCC)CCCn1c(=O)[nH]c2ccccc21.Cl	1.79
COc1ccc2oc(-c3ccc(C)c(NC(=O)c4ccc(N5CCOCC5)c([N+](=O)[O-])c4)c3)nc2c1	-3.95
CCC(CNc1cc(OC)cc2cccnc12)NC1CCCCC1 (stereo not drawn)	-26.2
O=C(COC(=O)c1cc(Br)ccc1Cl)NC(=O)NCc1ccccc1	19
COc1ccc(N2CC(C(=O)NCCC3=CCCCC3)CC2=O)cc1 (stereo not drawn)	-8.81
COc1ccc(CCNC(=O)CN2C(=O)COc3ccc(S(=O)(=O)N4CCOCC4)cc32)c(OC)c1	-28.1
Cc1cc(C)nc(-n2nc(C)cc2NC(=O)c2cccc(S(=O)(=O)N(C)C)c2)n1	-49.8
CC(C)C(c1nnnn1C1CCCC1)N1CCN(c2ccccc2F)CC1 (stereo not drawn)	0.713
COc1ccc(CCNc2cc(C)nc3c(-c4ccccc4)c(C)nn23)cc1OC	-6.67
N#CCSc1nnc(-c2ccccc2O)n1CCc1ccccc1	-10.7
Cc1ccc2nc(SCC(=O)Nc3ccc(F)cc3F)nc(=O)n2c1	-8.49
CCN(CC(=O)NCc1ccc(Cl)cc1)CC(=O)NC1(C#N)CCCC1	-19.2
Cn1cc(Br)c(C(=O)Nc2ncc(Br)s2)n1	21
CCn1c(SCc2ccccc2)nc2cc(S(N)(=O)=O)ccc21	-7.25
Cc1nn(Cc2ccccc2)c(Cl)c1C(=O)OCC(=O)NCC1CCCO1 (stereo not drawn)	-7.26
COc1ccc(CN2CCNC(=O)C2CC(=O)NC2CCC2)c(OC)c1 (stereo not drawn)	7.1
Cl.Nc1nc(N)c2[nH]c(-c3ccccc3)nc2n1	5.45
N#Cc1ccsc1NC(=O)c1cccc(-n2cnnn2)c1	6.03
Cc1cccc(NC(=O)c2ccc(N3CCOCC3)c([N+](=O)[O-])c2)n1	-20.1
CCOC(=O)N/N=C(\C)c1ccc(Br)cc1	-4.03

SMILES	hERG current change (%, negative = inhibition) at 10uM [%]
Cc1ccc(-c2nn[nH]n2)o1	17.5
Cc1cc(Oc2ccc(-c3ccccc3)cc2)nc(N2CCOCC2)n1	-1.32
C[C@@H]1CC=C[C@H]2[C@H]1C(=O)N(Cc1ccccc1)[C@H]2c1ccc(Br)cc1F	18
CCN1/C(=C2/SC(=S)NC2=O)Sc2ccccc21	16.4
CCOC(=O)C(C(=O)Nc1cccc(C)c1)C1CCCCC1 (stereo not drawn)	-6.99
CCOC(=O)C(C)Sc1ncc(-c2ccccc2)cn1 (stereo not drawn)	-1.33
Nn1c(SCC(=O)Nc2ccccc2C(F)(F)F)nncc1=O	18.3
Cc1ccc(CNC(=O)c2cc(-c3ccccc3)n(Cc3cc(C)no3)n2)cc1	-29.1
NC(=O)c1csc(-c2ccncc2)n1	3.87
COC(=O)C1=C(c2ccccc2)C[C@@H]2CC[C@H]1N2C(=O)NCc1ccco1	7.46
O=C(CN1C(=O)NC2(CCc3ccccc32)C1=O)Nc1cc(C(F)(F)F)ccc1N1CCOCC1 (stereo not drawn)	-5.15
CCCS(=O)(=O)N1CCC(C(=O)NCCc2ccc(OC)c(OC)c2)CC1	13.5
COc1cccc(NC(=O)CSc2nc(=O)n(Cc3ccncc3)c3c2CCCC3)c1	-10.9
Nc1nc2c(nc(SCc3ccccc3Br)n2[C@@H]2O[C@H](CO)[C@@H](O)[C@H]2O)c(=O)[nH]1	13.5
CC(=O)Nc1ccc(NC(=O)CCc2ccc(C)o2)cc1	19.8
O=C1NC[C@@H](Cc2cccc3ccccc23)N(CCC23CC4CC(CC(C4)C2)C3)C1=O	20.5
Cc1cc(C)cc(C(=O)NCC(=O)OCC(=O)N(C)c2ccccc2)c1	14.4
CCCOC(=O)C1C2C=CC3(CN(c4cccc(Cl)c4)C(=O)C13)O2 (stereo not drawn)	-5.23
COC(=O)c1c(C(=O)OC)c(-c2cccc(F)c2)n2c1CS(=O)C2 (stereo not drawn)	8.7
Nc1ccn([C@H]2CS[C@@H](CO)O2)c(=O)n1	18
C/C(=N\Nc1c(F)c(F)c(Br)c(F)c1F)c1ccncc1	16.4
CCCn1nnc(NC(=O)Cc2ccc(Cl)cc2)n1	-0.341

SMILES	hERG current change (%, negative = inhibition) at 10uM [%]
Cc1cc(OCC(=O)N[C@@H](CSCc2ccccc2)C(=O)O)c2c(C)c(C)c(=O)oc2c1	11.1
CN(Cc1ccccc1)C(=O)c1cccc(C(=O)N(C)Cc2ccccc2)c1	-3.07
COc1ccc(C2CC(c3ccccc3OC(=O)/C=C/c3ccccc3)=NN2C(C)=O)cc1 (stereo not drawn)	4.55
O=C(O)C1CCCCC1C(=O)Nc1ccccc1F (stereo not drawn)	7.88
N#CC(c1ccc(O)cc1)N1CCCCC1 (stereo not drawn)	3.97
COc1ccccc1-c1nnc(SCc2nc3ccccc3s2)n1C	-17
CC(C(=O)O)N1c2cccc3cccc(c23)S1(=O)=O (stereo not drawn)	4.58
C/C(=N\NC(=O)c1ccc2ccccc2c1)c1cccs1	9.65
O=[N+]([O-])c1ccccc1Sc1nccn1Cc1ccccc1	-21.6
CC(=O)N1CCN(C(=O)c2ccc3c(c2)OCCO3)CC1	10.9
O=C(c1cncc(Br)c1)N1CCc2ccccc2C1	-14.3
COc1cccc(N2CCN(C(=O)CNC(=O)c3sc4ccccc4c3Cl)CC2)c1	3.15
COc1ccc(NC(=O)c2cc(-c3ccc(C)o3)nc3ccccc23)cc1OC	7.52
O=C(NC(=S)Nc1ccccc1Cl)c1cnn2c(C(F)(F)F)cc(C(F)(F)F)nc12	11.5
CC(C)CC(=O)Nc1ccc2oc(-c3cccnc3)nc2c1	-3.14
N#C/C(=C\c1cccc([N+](=O)[O-])c1)C(=O)Nc1cccnc1	21.3
CCOC(=O)c1c(C)nc2sc3c(=O)n(-c4ccc(C(C)=O)cc4)nnc3c2c1-c1ccc(Cl)cc1	6.84
Cl.FC(F)(F)c1cccc(Nc2ncnc3ccccc23)c1	-4.41
CCOc1ccc(NC(=O)CN(C)CC(=O)Nc2cc(Cl)ccc2C#N)cc1OCC	-1.68
COc1cc(C(=O)OCC(=O)Nc2ccc(C(C)=O)cc2)ccc1OCC(=O)N1CCOCC1	6.64
CCOC(=O)CN(C(=O)CSc1nnc2c(n1)[nH]c1ccc(OC)cc12)c1ccc(F)cc1	-23.4
